The antibiotic and cytotoxicity screens of Wong et al. (2023)
The list shows a part of the results.

What follows are compounds tested on S. aureus RN4220 (assay: growth inhibition call (relative growth <= 0.2)). Settings: 50 µM.

Growth inhibition call, inactive:
N#CCc1ccc(Cl)cc1F
C[C@@H]1CN([C@@H](C)CO)C(=O)c2cc(NC(=O)NC3CCCCC3)ccc2O[C@@H]1CN(C)S(C)(=O)=O
Cc1ccc(S(=O)(=O)NCC[C@@H]2CC[C@H](NS(=O)(=O)c3ccccc3Cl)[C@H](CO)O2)cc1
C[C@H](CO)N1C[C@H](C)[C@H](CN(C)S(=O)(=O)c2ccccc2)Oc2ncc(-c3ccncc3)cc2C1=O
OCCNC(=S)NC1CCCC1
COc1ccc(CN(C)C[C@H]2OCCCC[C@@H](C)Oc3ccc(NC(=O)Nc4c(C)noc4C)cc3C(=O)N([C@H](C)CO)C[C@H]2C)cc1
C[C@@H]1CN([C@@H](C)CO)C(=O)c2cccc(NC(=O)CCCCCC(=O)Nc3ccccc3N)c2O[C@H]1CN(C)S(C)(=O)=O
CC(C)(C)[S@](=O)N1Cc2cc(C(=O)NCCc3ccncc3)nc(-c3cccc(-c4ccccc4)c3)c2[C@@H]1CCO
C[C@@H]1CN([C@H](C)CO)C(=O)c2cc(/C=C/c3ccccc3)cnc2O[C@H]1CN(C)S(=O)(=O)c1cn(C)cn1
C[C@@H]1CCCCO[C@@H](CN(C)C(=O)Nc2cccc3ccccc23)[C@@H](C)CN([C@@H](C)CO)C(=O)c2cc(NC(=O)Nc3cccc4ccccc34)ccc2O1
O=S1(=O)[C@@H]2C[C@H]3C=C[C@]2(CN1C1CC1)O3
Cc1noc(C)c1NC(=O)Nc1ccc2c(c1)CC(=O)N([C@@H](C)CO)C[C@@H](C)[C@H](CN(C)Cc1ccc(C(=O)Nc3ccccc3N)cc1)O2
OC[C@H]1O[C@H](n2cnc3cncnc32)[C@@H](O)[C@@H]1O
Cc1ccc(S(=O)(=O)N(C)C[C@H]2Oc3ccc(NC(=O)c4ccncc4)cc3C(=O)N([C@@H](C)CO)C[C@@H]2C)cc1
C[C@@H]1CN([C@@H](C)CO)C(=O)c2cc(NC(=O)Nc3cccc4ccccc34)ccc2O[C@@H]1CN(C)S(=O)(=O)c1ccc(Cl)cc1
C[C@@H]1CN([C@H](C)CO)C(=O)c2cc(NC(=O)Nc3ccc(C(F)(F)F)cc3)ccc2O[C@@H]1CN(C)S(=O)(=O)c1ccc(Cl)cc1
C[C@@H]1CN([C@H](C)CO)C(=O)c2cc(NC(=O)CCCN(C)C)ccc2O[C@@H]1CN(C)Cc1ccc2c(c1)OCO2
C[C@H]1CCCCO[C@@H](CN(C)C(=O)Nc2ccc(C(F)(F)F)cc2)[C@@H](C)CN([C@@H](C)CO)C(=O)c2cc(NC(=O)c3ccncc3)ccc2O1
C#CCN(C)C1CCN(C(C)=O)CC1
Cl.O=C(Nc1ccccc1)OCC(CN1CCCCC1)OC(=O)Nc1ccccc1 (stereo not given)
O=S1(=O)C[C@H](NCCO)[C@@H](O)C1
Cc1ccc(S(=O)(=O)Nc2ccc3c(c2)C(=O)N([C@@H](C)CO)C[C@@H](C)[C@@H](CN(C)S(=O)(=O)c2ccc(F)cc2)O3)cc1
COc1ccc(CN(C)C[C@H]2Oc3ccc(NS(=O)(=O)c4cn(C)cn4)cc3C(=O)N([C@@H](C)CO)C[C@H]2C)cc1
COCC#Cc1cnc2c(c1)C(=O)N([C@@H](C)CO)C[C@H](C)[C@H](CN(C)C(=O)c1ccc3c(c1)OCO3)O2
Cc1ccc(S(=O)(=O)N2C[C@H](O)COC[C@H]3O[C@H](CC(=O)N[C@H]4CCN(Cc5ccccc5)C4)CC[C@@H]32)cc1
Cc1ccc(S(=O)(=O)Nc2ccc3c(c2)CC(=O)N([C@@H](C)CO)C[C@@H](C)[C@H](CN(C)Cc2ccc(Oc4ccccc4)cc2)O3)cc1
C[C@@H]1CN([C@H](C)CO)C(=O)c2cccc(NC(=O)C3CC3)c2O[C@@H]1CN(C)Cc1ccc(-c2ccccc2)cc1
C[C@@H]1CN([C@H](C)CO)S(=O)(=O)c2ccc(-c3ccc(F)cc3)cc2O[C@H]1CN(C)C(=O)C1CCOCC1
Cn1cnc(S(=O)(=O)N2C[C@@H](O)COC[C@H]3O[C@H](CC(=O)NCc4cc(F)cc(F)c4)CC[C@@H]32)c1
C[C@@H]1CN([C@H](C)CO)C(=O)c2cccc(NC(=O)c3ccc(-c4nccs4)cc3)c2O[C@H]1CN(C)Cc1ccc(Cl)c(Cl)c1
[N-]=[N+]=Nc1ccccc1[C@@H]1OC(c2ccc(OCCCO)cc2)=N[C@]1(Cc1ccccc1)C(=O)N1CCCCC1
C[C@H]1CN([C@@H](C)CO)C(=O)c2cccc(NC(=O)c3ccc(-c4nccs4)cc3)c2O[C@@H]1CN(C)CC1CCCCC1
COc1cccc(C(=O)Nc2ccc3c(c2)C(=O)N(C)[C@@H]2CC[C@@H](CC(=O)NCC4CC4)O[C@H]2CO3)c1
O=C(C[C@H]1CC[C@H]2[C@@H](COC[C@@H](O)CN2S(=O)(=O)c2ccc(F)cc2)O1)NCc1ccncn1
COC(=O)c1cnn2c(=O)cc(C)[nH]c12
Cc1cc(C(=O)Nc2cccc3c2O[C@@H](CN(C)Cc2ccncc2)[C@H](C)CN([C@@H](C)CO)C3=O)n(C)n1
COc1ccc(S(=O)(=O)N(C)C[C@@H]2Oc3ccc(NC(=O)NC(C)C)cc3CC(=O)N([C@H](C)CO)C[C@@H]2C)cc1
C[C@@H]1CN([C@@H](C)CO)S(=O)(=O)c2ccc(-c3cccnc3)cc2O[C@@H]1CN(C)C(=O)NC1CCCCC1
Cc1noc(C)c1S(=O)(=O)Nc1ccc2c(c1)CC(=O)N([C@H](C)CO)C[C@@H](C)[C@H](CN(C)Cc1ccccc1)O2
COCC#Cc1ccc2c(c1)O[C@@H](CN(C)Cc1ccccc1F)[C@@H](C)CN([C@H](C)CO)S2(=O)=O
